Laboratory results as given in article PMC6602471.
This is one part of the list. At the low end of the ranking the order means little.

biological target: T1, ETS1 (UniProt P14921); experiment: custom PBM; conditions: custom protein-binding microarray; buffer, salt, pH and temperature not stated; high values mean tight binding; double strand, one strand shown
T1 sequence: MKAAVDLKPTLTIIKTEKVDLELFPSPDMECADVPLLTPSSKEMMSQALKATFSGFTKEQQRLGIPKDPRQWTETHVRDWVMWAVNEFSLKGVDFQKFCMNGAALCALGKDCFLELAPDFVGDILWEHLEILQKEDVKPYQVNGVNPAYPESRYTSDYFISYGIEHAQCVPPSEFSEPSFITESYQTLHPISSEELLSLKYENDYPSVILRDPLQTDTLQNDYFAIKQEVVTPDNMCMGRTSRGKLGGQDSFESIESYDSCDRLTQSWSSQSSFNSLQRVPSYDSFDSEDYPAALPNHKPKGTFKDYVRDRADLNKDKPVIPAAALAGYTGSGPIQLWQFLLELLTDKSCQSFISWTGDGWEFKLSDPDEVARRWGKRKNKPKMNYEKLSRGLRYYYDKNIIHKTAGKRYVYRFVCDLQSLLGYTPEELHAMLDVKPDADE

Row | Sequence | binding signal (log fluorescence intensity)
1 | GCTGCTGCGGTGCATACCCCACCGGATGTGACCCCCGTCTTGATTCGCTTGACGCTGCTG | 9.9
2 | CTGGGACTTGACCCAACTCTGCCACGTGGGTTGTTTGTCTTGATTCGCTTGACGCTGCTG | 8.01
3 | TGTCGGGTAAGGGAATGTAGATCACGTGAGTGAAAAGTCTTGATTCGCTTGACGCTGCTG | 8.18
4 | GATTAATTTCTGCCCTTATTCGCACATGCCATAACAGTCTTGATTCGCTTGACGCTGCTG | 8.29
5 | TAAAGGGAAGACGGTTGTGGTAGTTCCGGGTATTATGTCTTGATTCGCTTGACGCTGCTG | 8.5
6 | TACTGACTTATATATGCGACTGCACATGAATAGACCGTCTTGATTCGCTTGACGCTGCTG | 8.13
7 | GATTAATTTCTGCCCTTATTCGCACGTTCCATAACAGTCTTGATTCGCTTGACGCTGCTG | 8.23
8 | TAAAGGGAAGACGGTTGTGGTATTTCCGGGTATTAAGTCTTGATTCGCTTGACGCTGCTG | 10.6
9 | TAAAGGGAAGACGGTTGTGGTAGTTCCGGGTATAAAGTCTTGATTCGCTTGACGCTGCTG | 8.76
10 | CGGACGTGTCGTAAACGTCGGATATCCGGTTCTTCTGTCTTGATTCGCTTGACGCTGCTG | 11.7
11 | GGAAAAAGGCCCAGGATAACACCGGAAGTGGGCTTAGTCTTGATTCGCTTGACGCTGCTG | 12.2
12 | TCCGGCTCCCAGCTCCACCCACTTCAGGCCTTGTAGGTCTTGATTCGCTTGACGCTGCTG | 8.2
13 | CAGCATAGGACTTCTTCCCTGAAGCAATTGCTAACCGTCTTGATTCGCTTGACGCTGCTG | 8.28
14 | GGAAAAAGGCCCAGGGTAACACCGGAAGTGGACTTAGTCTTGATTCGCTTGACGCTGCTG | 11.9
15 | CAGCATAGGACTTCTTCCCTGAAGCAATTCATAACCGTCTTGATTCGCTTGACGCTGCTG | 8.23
16 | TACTGACTTATATATGCGAATGAACATGAATAGACCGTCTTGATTCGCTTGACGCTGCTG | 8.29
17 | CTGGGACTTAACCCAACTCTGCCACGTGGGTCGTTTGTCTTGATTCGCTTGACGCTGCTG | 8.05
18 | TCCGGCTACCAGCTCCACCTACTTCAGGCCTTGTAGGTCTTGATTCGCTTGACGCTGCTG | 8.19
19 | TCCGGCTACCAGCTACACCCACTTCAGGCCTTGTAGGTCTTGATTCGCTTGACGCTGCTG | 8.02
20 | GATTTATTTCTGCCCTTATTCGCACGTGCCATAACAGTCTTGATTCGCTTGACGCTGCTG | 8.13
21 | TGGCGGGTAAGGGAATGTAGATCACGTGAATGAAAAGTCTTGATTCGCTTGACGCTGCTG | 8.29
22 | TACTGACTTATATATGCGAAGGCACATGAATAGACCGTCTTGATTCGCTTGACGCTGCTG | 8.01
23 | TGTCGGGTAAGGGAATGTAGATCACGTGAATGACAAGTCTTGATTCGCTTGACGCTGCTG | 8.22
